Laboratory results published in PubChem BioAssay AID1508624 (National Center for Advancing Translational Sciences (NCATS), 2021).
The campaign covered roughly 48,000 compounds. About 120 (0.25%) were called active. Inconclusive results (about 4%) are left out. Calls follow the shape of the dose curve; as a rule, active = well fitted activation curve with a large enough effect; inconclusive = small, poorly fitted or top-dose-only effect, or another doubt; inactive = no such curve, though single readings can be large or run the other way. The list shows a part of the results.

Assay: Primary qHTS for Identification of Small Molecule Activators of Huntingtin-Antisense Promoter Activity; also: nearly all actives have a fitted effect of over 55% in size
Settings: HEK293 HTT-AS promoter firefly luciferase reporter, 24 h; series mostly up to 57.5 µM; activity change, positive = activation: at the top concentration
In short: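 HEK293 luciferase promoter-reporter cells (2,500/well) plated 24 h, then compounds added at up to 57.5 uM final for 24 h at 37 °C. Firefly luminescence by Dual-Glo, normalized to vehicle (0%) and zero RLU (-100%).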

| SMILES | activity change, positive = activation |
| --- | --- |
| COc1ccc(NC(=O)c2oc3ccc(S(=O)(=O)N4CCC5(CC4)OCCO5)cc3c2C)cc1Cl | inactive: -46.5% |
| COc1ccc(NC(=O)C2CCC(CNS(=O)(=O)c3cccs3)CC2)cc1OC (configuration not stated) | inactive: -9.89% |
| Clc1ccccc1-c1nnc(-c2ccccc2CNc2ccccc2)o1 | inactive: 17.1% |
| Cc1ccccc1CSCCNC(=O)CN(c1ccccc1)S(=O)(=O)N(C)C | inactive: -28.6% |
| COc1ccccc1CNC(=O)c1cc2ccc3ccc(C)[nH]c3c2n1 | inactive: -8.33% |
| CCN1CCc2c(sc(-n3cccc3)c2C(C)NC(=O)Nc2ccccc2C)C1 (configuration not stated) | inactive: -6.26% |
| Cc1cccc(CC(=O)Nc2cccc(-c3nc4cccnc4s3)c2)c1 | inactive: 19.5% |
| OC(CN1CCC(Cc2ccc(F)cc2)CC1)c1ccc(Cl)cc1 (configuration not stated) | inactive |
| Cc1ccc(C)c(N2CCN(S(=O)(=O)c3csc(C(N)=O)c3)CC2)c1 | inactive: -47.9% |
| CCCN1CCN(CCCNC(=O)Cn2c(-c3cccs3)cc3cc(Cl)ccc32)CC1 | inactive: -26.6% |
| Cc1ccc(CNC(=O)CSC2=Nc3ccccc3C3=NC(C)C(=O)N23)cc1 (configuration not stated) | inactive: -3.54% |
| Cc1ccc2occ(CC(=O)N3CCN(c4cccc(Cl)c4)CC3)c2c1 | inactive: -29.8% |
| CC(=O)Nc1cccc(NC(=O)C(=O)NCCc2csc3nc(-c4ccccc4F)nn23)c1 | inactive: -0.841% |
| CCOC(=O)c1ccccc1NC(=O)c1nn(C)c2c1COc1ccccc1-2 | inactive: -9% |
| CC(C)CCNC(=O)c1cn(C)c2ccc(S(=O)(=O)N3CCOCC3)cc2c1=O | inactive: -11.2% |
| COc1ccccc1N1CCN(S(=O)(=O)c2ccc(-c3cnc(C4CC4)o3)cc2)CC1 | inactive: -4.64% |
| CCc1cccc(NC(=O)CCS(=O)(=O)c2cc3c4c(c2)CCN4C(=O)CC3)c1 | inactive: -2.39% |
| Cc1c(Cl)cccc1-n1nc(C)c2c(C)cc(=O)n(CC(=O)NCc3ccccc3)c21 | inactive: -18.3% |
| COc1cc2c(cc1OC)C(COc1ccccc1OC)N(C(=O)c1ccccc1OC)CC2 (configuration not stated) | inactive: -14.3% |
| Cc1cc(C)c(NC(=O)Cn2c(=O)n(Cc3ccccc3)c(=O)c3c(C)c(C(=O)N(C)C)sc32)c(C)c1 | inactive: -14.6% |
| COc1cc2c(=O)c(S(=O)(=O)c3ccccc3)cn(CC(=O)Nc3ccccc3C)c2cc1OC | inactive: -2.63% |
| COc1cc(OC)c(NC(=O)c2c3c(nc4ccccc24)C(=O)N(C2CCCCC2)C3)cc1Cl | inactive: -10.8% |
| CCOc1ccccc1NC(=O)CN1CCN(S(=O)(=O)c2ccc(Br)cc2)CC1 | inactive: -11% |
| CCS(=O)(=O)N1CCc2cc(C(=O)Nc3ccc(OC)cc3OC)ccc21 | inactive: -18.1% |
| CCC1CCCCN1Cc1cn2c(-c3ccc(Br)cc3)nnc2s1 (configuration not stated) | inactive: -3.04% |

| SMILES | activity change, positive = activation |
| --- | --- |
| CC(=O)c1cccc(NC(=O)c2nc(-c3ccccc3)n(-c3cccc(C)c3)n2)c1 | inactive: -4.66% |
| COc1c(Cl)cc(Cl)cc1CNCCSc1nnnn1C | inactive: -10.4% |
| O=C(Nc1nc2n(n1)C(c1ccc(F)cc1)C=C(c1ccccc1)N2)c1cccc([N+](=O)[O-])c1 (configuration not stated) | inactive: -21.7% |
| CCC(C)NC(=O)CSc1nc2cc3c(cc2c(=O)n1CCCCCC(=O)NCc1ccc(OC)cc1)OCO3 (configuration not stated) | inactive: -7.4% |
| CCCCc1ccc(NC(=O)CSc2nnc3[nH]c(=O)cc(C)n23)cc1 | inactive: 12% |
| CCCN1CCN(CCCNC(=O)c2ccc(CS(=O)c3ccc(OC)cc3)o2)CC1 (configuration not stated) | inactive: -1.17% |
| CCCN(CCC)C(=O)CSc1nnc2cc(C)c3ccccc3n12 | inactive: -7.23% |
| CCN(CC)CCNC(=O)c1cc2c(=O)oc3ccc(C)cc3c2s1 | inactive: -7.77% |
| Cc1ccc(NC(=O)Cn2nnc3sc4c(c3c2=O)CCCC4)c(C)c1 | inactive: -2.16% |
| Cc1cc(C)c(Cn2c3ccccc3c3cnn(CC(=O)NCC(C)c4ccccc4)c(=O)c32)c(C)c1 (configuration not stated) | inactive: -11.2% |
| O=C(/C=C/c1ccc(Cl)cc1)Nc1nc(-c2cccs2)ns1 | inactive: -37.2% |
| CCn1cc(C(=O)NCc2ccc(F)cc2)c(=O)c2cc(S(=O)(=O)N(C)C)ccc21 | inactive: -7.75% |
| COc1cc(OC)c(NC(=O)CCNS(=O)(=O)c2ccc3c(c2)oc(=O)n3C)cc1Cl | inactive: 21.1% |
| COc1ccc(-n2c(CCC(=O)O)ccc2-c2ccccc2)c(OC)c1 | inactive: -15.7% |
| CC(=O)N1CCCc2cc(S(=O)(=O)N(Cc3ccccc3)C(C)C)ccc21 | inactive: -37.5% |
| CCN1C(=O)c2ccccc2Sc2ccc(NC(=O)Nc3ccc(C(C)=O)cc3)cc21 | inactive: -36.6% |
| Cc1ccccc1CNCCCSc1nnnn1-c1ccccc1 | inactive: -2.08% |
| Cc1ccc2oc(=O)c3cnn(CC(=O)Nc4ccc(Br)cc4C)c3c2c1 | inactive: -8.39% |
| CCc1cccc(C)c1NC(=O)COCc1cc(-c2ccc3c(c2)OCO3)on1 | inactive: -25.4% |
| Cc1cc(C)c(Cn2c(C)c(CNCc3ccccc3C)c(C(=O)O)c2C)c(C)c1 | inactive: -17.8% |
| CC1CCCCN1C(=O)CSc1nc2ccccc2nc1Cc1ccc(Cl)cc1 (configuration not stated) | inactive: -41% |
| O=C(c1ccco1)N(Cc1cccnc1)c1nc2c(F)cccc2s1 | inactive: -11.9% |
| Cc1cccc(NC(=O)c2ccc(F)c(S(=O)(=O)N(C)C3CCCCC3)c2)c1 | inactive: -28.4% |
| CCOc1ccc(C(=O)N2CCN(Cc3cc(=O)n4nc(-c5cccc(OC)c5)sc4n3)CC2)cc1 | inactive: 0.523% |
| COc1ccc(NC(=O)C(C)n2nc(C)c3c(C)n(-c4ccccc4)nc3c2=O)cc1Cl (configuration not stated) | inactive: -13.9% |

| SMILES | activity change, positive = activation |
| --- | --- |
| CCOCCCNC(=O)C(c1ccc(Cl)cc1)N(Cc1ccc2c(c1)OCO2)C(=O)c1ccccc1O (configuration not stated) | inactive: -9.98% |
| CCN(Cc1nc(-c2ccc(OC)cc2)oc1C)S(=O)(=O)c1ccc(Cl)cc1 | inactive: -9.7% |
| COc1ccc(-c2nc(S(=O)(=O)c3ccccc3)c(N3CCCCC3)o2)cc1 | inactive: 16.5% |
| COc1ccc(N2CCN(C(=O)c3cccn4c(=O)c5ccc(Cl)cc5nc34)CC2)cc1 | inactive: 2.92% |
| COc1ccc(NCc2nc3ccccc3n2CCOc2ccc(C)cc2)cc1 | inactive: -52.5% |
| O=C(NCC(c1ccc(Cl)cc1)N1CCCCC1)c1ccccc1 (configuration not stated) | inactive: -8.26% |
| CCCOc1ccc(C(=O)N(Cc2cccs2)C2CCS(=O)(=O)C2)cc1 (configuration not stated) | inactive: -4.82% |
| Cc1ccc(NCc2nc3ccccc3n2CCOc2ccccc2C)cc1 | inactive: -3.05% |
| COc1cc(OC)cc(-c2nc3nc(C)c(CCC(=O)Nc4ccc(C)cc4)c(C)n3n2)c1 | inactive: -2.03% |
| Nc1c(C(=O)Nc2ccccc2Cl)nnn1Cc1cccc(Cl)c1 | inactive: -14.8% |
| CCNc1nc2c(c(=O)n(C)c(=O)n2C)n1CC(O)COc1ccccc1 (configuration not stated) | inactive: -22.1% |
| COC(=O)c1cc(NC(=O)c2cnc(SC)nc2-c2ccccc2)cc(C(=O)OC)c1 | inactive: -5.5% |
| Cc1c(CCNS(=O)(=O)c2ccccc2)sc2nc(-c3ccc(Cl)cc3)nn12 | inactive: -38.1% |
| Cc1c2cnn(CC(=O)O)c(=O)c2c(C)n1Cc1cccc(Cl)c1 | inactive: 0.157% |
| O=C(CC1N=C2c3ccccc3N=C(SCc3ccc(Cl)cc3)N2C1=O)NC1CCCCC1 (configuration not stated) | inactive: 17.7% |
| Cc1ccc(CNC(=O)COCc2cc(-c3ccc4c(c3)OCO4)on2)cc1 | inactive: 3.37% |
| CCOc1ccc2cc(-c3nnc(Nc4ccccc4F)s3)c(=O)oc2c1 | inactive: -1.13% |
| Cc1ccc(-c2cnc(NCc3ccc(C(C)C)cc3)n2C)cc1 | inactive: -15.5% |
| O=C(NCc1cccc(Br)c1)c1ccc(-n2cnc3cccnc32)cc1 | inactive: -13.4% |
| Cc1ccc(-n2ncc3c(N4CCC(C)CC4)ncnc32)cc1C | inactive: -38.8% |
| Cc1cccc(-c2noc(CNC(=O)c3ccc(C)cc3C)n2)c1 | inactive: -1.5% [at 11.5 µM, percent change from vehicle, -100% = no light] |
| COc1ccc(C(C(=O)NCc2ccccc2)N(C(=O)Cn2nnc3ccccc32)c2ccc(F)cc2)cc1 (configuration not stated) | inactive: -10.9% |
| Cc1cc(C)c(S(=O)(=O)NCC(c2ccc(N(C)C)cc2)N2CCc3ccccc32)c(C)c1 (configuration not stated) | inactive: -21.9% |
| CCOc1ccccc1CNC(=O)CSc1n[nH]c(-c2ccccc2Cl)n1 | inactive: -23.1% |
| COc1ccc(CNC(=O)Cc2coc3ccc(C(C)C)cc23)cc1 | inactive: -27% |

| SMILES | activity change, positive = activation |
| --- | --- |
| O=C(CN1C(=O)COc2ccc(S(=O)(=O)N3CCCCC3)cc21)NCc1ccccc1Cl | inactive: -26.2% |
| CCOC(=O)c1ccc(Nc2nc(C(=O)OCC)nc3ccccc23)cc1 | inactive: -52.5% |
| Cc1ccc(C)c(CN2C(=O)c3ccccc3S(=O)(=O)c3ccc(C(=O)N4CCN(C)CC4)cc32)c1 | inactive: -9.47% |
| Cc1cc(Nc2cc(Cl)ccc2C)n2nc(Cc3ccccc3)nc2n1 | inactive: -10.9% |
| COc1cccc(CNC(=O)CCc2nc(-c3ccc(C)cc3)no2)c1 | inactive: -14.6% |
| COc1ccccc1NC(=O)CSc1oc(-c2ccco2)nc1S(=O)(=O)c1ccc(Br)cc1 | inactive: -18.1% |
| Cc1cc(OCCn2cc(C(=O)c3ccco3)c3ccccc32)ccc1Cl | inactive: -26.3% |
| COc1ccc(-c2nnc(SCC(=O)Oc3cccc(C)c3C)o2)cc1 | inactive: -48.1% |
| CCOc1cccc(C2c3[nH]c4ccccc4c3CCN2C(=O)CCc2ccccc2)c1 (configuration not stated) | inactive: -29.1% |
| Cc1cccc(NC(=O)C2CCCN(c3nnc(-n4c(C)ccc4C)s3)C2)c1C (configuration not stated) | inactive: -15.9% |
| O=C(NCc1noc2ccccc12)Nc1ccc(F)cc1F | inactive: -9.55% |
| CCOC(=O)c1nc(Nc2ccccc2C)c2ccccc2n1 | inactive: -17.5% |
| CCN(CC)S(=O)(=O)c1ccc2nc(NC(=O)c3ccc(Br)o3)sc2c1 | inactive: 6.65% |
| O=C(Nc1nc2ccc(Cl)cc2s1)c1ccc(S(=O)(=O)N2CCCC2)cc1 | inactive: -7.9% |
| CCN(CC)c1ccc(C(=O)N2CCC(c3ccncc3)CC2)cc1 | inactive: -32.3% |
| COc1ccc(C)cc1NC(=O)CN1C(=O)COc2ccc(S(=O)(=O)N3CCCCCC3)cc21 | inactive: -19% |
| CCOC(=O)C1CCCN(C(=O)c2ccc3c(c2)N(Cc2cccc(Cl)c2)C(=O)c2ccccc2S3(=O)=O)C1 (configuration not stated) | inactive: -31.3% |
| CCCN(C(=O)Cn1c(=O)oc2cc(Cl)ccc21)c1ccc(C(C)C)cc1 | inactive: -14% |
| CC1CC2C3CCC4=CC(=O)C=C[C@]4(C)[C@@]3(F)[C@@H](O)C[C@]2(C)[C@@]1(O)C(=O)CO (some centres not stated) | inactive: -7.33% |
| CC(C)c1ccc(NC(=O)CN2C(=O)c3cccc4cccc2c34)cc1 | inactive: -10.2% |
| CCCN(CCC)S(=O)(=O)c1ccc(C(=O)O)cc1 | inactive: -1.57% |
| CCc1ccc(S(=O)(=O)c2cn(C)c3cc(OC)c(OC)cc3c2=O)cc1 | inactive: -1.68% |
